Results on 49 molecules are retold here after PMC6919601, “Identification of Plasmodium dipeptidyl aminopeptidase allosteric inhibitors by high throughput screening” (PLoS ONE, 2019).

Each structure is given as a SMILES string. The campaign covered roughly 110,000 compounds. About 230 (0.21%) showed an effect of 50% or more. This is one part of the list.
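Note: 30 min substrate incubation versus DMSO and 10 µM JCP410 controls.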

For this assay, the target named is DPAP1 (Plasmodium falciparum, UniProt Q8IIJ9). As to the kind of experiment: primary screen, percent inhibition; read by cleavage of a fluorogenic dipeptide substrate; higher = more effect of the substance. Set-up: species or system P. falciparum D10 trophozoite lysates; single well.
Sequence of DPAP1 (Q8IIJ9 whole entry, looked up): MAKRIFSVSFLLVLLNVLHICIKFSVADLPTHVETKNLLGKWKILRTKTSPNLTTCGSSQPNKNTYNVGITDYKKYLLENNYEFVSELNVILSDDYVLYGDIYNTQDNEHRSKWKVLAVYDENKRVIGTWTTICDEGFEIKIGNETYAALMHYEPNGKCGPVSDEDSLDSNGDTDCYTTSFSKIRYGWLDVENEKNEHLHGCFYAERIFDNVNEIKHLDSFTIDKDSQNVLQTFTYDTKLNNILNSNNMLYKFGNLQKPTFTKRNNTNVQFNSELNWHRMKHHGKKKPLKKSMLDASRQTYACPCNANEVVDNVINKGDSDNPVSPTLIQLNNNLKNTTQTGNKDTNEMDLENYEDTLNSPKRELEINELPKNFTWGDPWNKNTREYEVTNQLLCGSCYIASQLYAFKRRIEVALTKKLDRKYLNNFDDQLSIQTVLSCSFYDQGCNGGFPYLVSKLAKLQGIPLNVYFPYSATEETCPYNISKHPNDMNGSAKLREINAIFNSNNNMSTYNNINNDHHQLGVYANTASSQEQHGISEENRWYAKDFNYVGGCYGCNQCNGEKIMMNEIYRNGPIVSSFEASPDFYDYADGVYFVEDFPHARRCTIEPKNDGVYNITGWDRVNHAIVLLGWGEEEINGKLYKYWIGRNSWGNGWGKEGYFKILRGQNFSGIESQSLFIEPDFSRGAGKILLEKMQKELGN
With `Cc1nc2nc(CSc3nc4ccccc4s3)cc(O)n2n1`, the “% Inhibition @ 10 uM” value was determined as 0.221%.
For the molecule `CCOc1ccc(CCNS(=O)(=O)c2cc(Cl)c(C)cc2OC)cc1OCC`, the “% Inhibition @ 10 uM” value worked out at 0.883%.
The same measure for `C(=C\c1cc(/C=C/c2ccccc2)ncn1)/c1ccccc1`: -5.51%; for `Cn1nc(Oc2nc(NC(C)(C)C)nc(N3CCOCC3)n2)ccc1=O`: 2.46%; for `COc1ccc(C(=O)N2CCN(C(=O)c3ccc(OC)cc3)CC2)cc1`: -1.61%.
Turning to `O=C(Cn1ncc2ccccc21)NC1CCCCCC1`, the “% Inhibition @ 10 uM” value is -3.47%.
For `Cc1ccc(NC(=O)/C=C/c2cccc([N+](=O)[O-])c2)cc1C`, the “% Inhibition @ 10 uM” value turned out to be 4.6%.
The same measure for `CCCN1C/C(=C/c2cccc(OC)c2OC)C(=O)/C(=C/c2cccc(OC)c2OC)C1`: 8.55%; for `Cc1nnc(NC(=O)CSc2n[nH]c(-c3ccccc3)n2)s1`: 1.76%.
For the molecule `O=c1c2oc3ccccc3c2ncn1C/C=C/c1ccccc1`, the “% Inhibition @ 10 uM” value was -1.48%.
On to `Cn1c2ccccc2c2nnc(SCCCn3c(O)nc4ccccc43)nc21`, for which the “% Inhibition @ 10 uM” value is listed as 3.79%.
Turning to `CCCCNC(=O)NS(=O)(=O)c1cnccc1Sc1ccc(Cl)cc1`, the “% Inhibition @ 10 uM” value is -2.74%.
With `COc1ccc(-c2cc(C(F)(F)F)n3nc(C(=O)N4CCN(C(=O)c5ccco5)CC4)cc3n2)cc1`, the “% Inhibition @ 10 uM” value is -2.23%.
On to `Cc1ccc(/C=N/N=C(\N)c2nonc2N)cc1`, for which the “% Inhibition @ 10 uM” value came to 3.34%.
In the case of `Cc1cccn2c(=O)c(/C=C(\C#N)S(=O)(=O)c3ccccc3)c(Oc3ccccc3Cl)nc12`, the “% Inhibition @ 10 uM” value was -3.23%.
On to `CCc1ccc(C2=CC(c3cc(Br)ccc3OC(F)F)n3nnnc3N2)cc1` (stereo not shown), for which the “% Inhibition @ 10 uM” value is recorded as 1.66%.
Then `CCc1ccc(CNCc2c(C(=O)O)n(Cc3ccc(F)cc3)c3cc(OC)ccc23)cc1`, with 1.53%; and `O=C1OC(c2cncc(Br)c2)=N/C1=C\c1ccc2c(c1)OCO2`, with -0.0894%.
As for `Cc1cc(-c2ccc(C)c(S(=O)(=O)NCc3ccco3)c2)on1`, the “% Inhibition @ 10 uM” value amounted to 3.37%.
With `CC1=C(C(=O)Nc2cccc(C)n2)C(c2ccc3c(c2)OCO3)C2=C(O)CC(C)(C)CC2=N1` (stereo not shown), the “% Inhibition @ 10 uM” value was found to be 0.674%.
Turning to `CCOc1ccc(/C=C/C(O)=C2/C(=O)N(C)C3(C)CC2c2ccccc2O3)cc1OC` (stereo not shown), the “% Inhibition @ 10 uM” value was determined as 2.35%.
Regarding `Cc1cccc(C[C@H](NC(=O)OCc2ccccc2)C(=O)NCC#N)c1`, the “% Inhibition @ 10 uM” value is -6.98%.
Then `O=C1CCC(=O)N1C1=NC2=C(CCCC2)C2(CCCCC2)S1`, with 0.324%; and `COc1cc(CNCc2cc(OC)ccc2OC)cc(OC)c1`, with -2.22%.
Then `O=C(O)CCC(=O)N1CCSc2ncccc21`, with 7.75%; and `Cc1ccc(/C=C(/C#N)c2nc(-c3ccc(-c4ccccc4)cc3)cs2)o1`, with 2.13%; and `OC1CCCN(Cc2cccc3ccccc23)C1` (stereo not shown), with 1.48%.
As for `COc1cc(C(=O)/N=c2\sc3c(n2C)-c2ccccc2CC3)cc(OC)c1OC`, the “% Inhibition @ 10 uM” value is given as -3.33%.
As for `COc1cc(C2c3c(oc4cc(C)c(C)cc4c3=O)C(=O)N2c2nccs2)cc(OC)c1OC` (stereo not shown), the “% Inhibition @ 10 uM” value was found to be 0.415%.
In the case of `Cc1ccc(-c2c(O)c(=O)/c2=N\C2CCCC(C)C2C)cc1` (stereo not shown), the “% Inhibition @ 10 uM” value was 0.309%.
For `Cc1c(O)c2c3c(cccc3c1O)C(=O)N(c1ccccc1)C2=O`, the “% Inhibition @ 10 uM” value was 2.36%.
`Cc1ccc(-c2cc(C(=O)Nc3cccnc3)c3ccccc3n2)o1`: the “% Inhibition @ 10 uM” value is -5.06%.
Take `CCO/C(O)=C1/C(C)=NC(=S)NC1c1ccc(OC)cc1` (stereo not shown): the “% Inhibition @ 10 uM” value is -8.49%.
`COc1cccc(C(=O)N(Cc2cccc(Cl)c2)C2CCS(=O)(=O)C2)c1` (stereo not shown): the “% Inhibition @ 10 uM” value is 6.69%.
As for `CCC(C(=O)Nc1nn2c(-c3ccccc3)nnc2s1)c1ccccc1` (stereo not shown), the “% Inhibition @ 10 uM” value was -1.56%.
With `COc1ccc(C(=O)Nc2cc(C#N)c3nc4ccccc4n3c2O)cc1`, the “% Inhibition @ 10 uM” value is recorded as 0.032%.
As to `CCC(COc1nnnc2ccccc12)NC(=O)C1CCN(S(C)(=O)=O)CC1` (stereo not shown), the “% Inhibition @ 10 uM” value was -1.07%.
Then `Cc1csc(NC(=O)C(CCS(C)(=O)=O)N2Cc3ccccc3C2=O)n1` (stereo not shown), with 0.0322%; and `COc1ccc(-c2cc(C(=O)Nc3sc(C)c(C)c3C(N)=O)c3ccccc3n2)cc1OC`, with 9.88%; and `Cc1cccc(C)c1CC(=O)N1CCOCC1`, with 3.53%.
In the case of `O=C(COc1ccc(Cl)cc1Cl)NCc1ccccc1`, the “% Inhibition @ 10 uM” value amounted to 3.16%.
On to `N#CC1=C(O)Oc2ccc(N)cc2C1c1ccccc1F` (stereo not shown), for which the “% Inhibition @ 10 uM” value is on record as -0.25%.
For the molecule `O=C1c2cccc3cccc(c23)N1CN1CCN(c2ccccn2)CC1`, the “% Inhibition @ 10 uM” value was determined as 6.24%.
The same measure for `CC1=C(C(=O)Nc2ccc(Cl)cc2)C(c2ccncc2)n2nc(CCCO)nc2N1` (stereo not shown): 3.83%.
Regarding `CC(O)C(=O)NS(=O)(=O)c1ccc(C(C)C)cc1` (stereo not shown), the “% Inhibition @ 10 uM” value was -8.2%.
Turning to `COc1ccc(S(=O)(=O)NCc2ccco2)c2cccnc12`, the “% Inhibition @ 10 uM” value was -7.8%.
For `Fc1ccccc1Nc1nc(-c2ccccc2)cs1`, the “% Inhibition @ 10 uM” value was 3.61%.
In the case of `NC(=O)C1CCN(C2CC(=O)N(c3ccc(F)cc3)C2=O)CC1` (stereo not shown), the “% Inhibition @ 10 uM” value is 0.76%.
As to `Cc1ccc(NC(=O)C2CCCN(S(=O)(=O)c3c(C)noc3/C=C/c3cccs3)C2)nc1` (stereo not shown), the “% Inhibition @ 10 uM” value worked out at 1.72%.
